The other results are listed elsewhere or left out.
The compounds below were run on HSkMC (human skeletal muscle cells) (assay: cytotoxicity call (relative viability < 0.9)). Settings: 10 µM.

SMILES | cytotoxicity call
C[C@@H]1CN([C@H](C)CO)C(=O)c2cc(NC(=O)CCCN(C)C)ccc2O[C@H]1CN(C)S(=O)(=O)c1ccc(Cl)cc1 | inactive
C[C@H]1CN([C@@H](C)CO)C(=O)c2cc(NS(C)(=O)=O)ccc2O[C@@H]1CN(C)C(=O)Nc1ccccc1 | inactive
C[C@H](CO)N1C[C@H](C)[C@H](CN(C)C(=O)Nc2cccc3ccccc23)Oc2c(NC(=O)Nc3ccc(F)cc3)cccc2C1=O | inactive
CCCCC(=O)N(Cc1ccc(-c2ccccc2-c2nn[nH]n2)cc1)C(C(=O)O)C(C)C (stereo not given) | inactive
O=C(Nc1ccc2c(c1)[C@@H]1C[C@H](CC(=O)N3CCc4ccccc4C3)O[C@H](CO)[C@@H]1O2)C1CCOCC1 | inactive
C[C@@H]1CN([C@@H](C)CO)C(=O)c2cc(Br)cnc2O[C@@H]1CN(C)C(=O)CN1CCOCC1 | inactive
C[C@@H]1CN([C@@H](C)CO)C(=O)c2cccc(NC(=O)c3ccc(-c4nccs4)cc3)c2O[C@H]1CN(C)C(=O)NC1CCCCC1 | inactive
COc1ccc2c3c(n(c2c1)C)[C@@H](CO)N(C[C@]13CN(CC2CCOCC2)C1)C(=O)c1ccc(cc1)F | inactive
Cc1ccc(S(=O)(=O)Nc2ccc3c(c2)CC(=O)N([C@H](C)CO)C[C@H](C)[C@H](CN(C)S(=O)(=O)c2cccs2)O3)cc1 | inactive
COc1cc(C=O)ccc1O | inactive
Cc1ccc(S(=O)(=O)N(C)C[C@H]2Oc3c(NC(=O)C4CC4)cccc3C(=O)N([C@H](C)CO)C[C@H]2C)cc1 | inactive
COc1ccc(S(=O)(=O)Nc2cccc3c2O[C@@H](CN(C)S(=O)(=O)c2ccccc2)[C@H](C)CN([C@H](C)CO)C3=O)cc1 | inactive
COc1ccc(CN(C)C[C@H]2Oc3ccc(NC(=O)Nc4cccc5ccccc45)cc3CC(=O)N([C@@H](C)CO)C[C@@H]2C)cc1 | inactive
COc1ccc2c3c([nH]c2c1)[C@@H](CO)N(C[C@]13CN(C1)S(=O)(=O)C)C(=O)c1cnccn1 | inactive
C[C@@H]1O[C@@H](O[C@H]2[C@H](Oc3cc(O)c4c(c3)O[C@H](c3ccc(O)cc3)CC4=O)O[C@H](CO)[C@@H](O)[C@@H]2O)[C@H](O)[C@H](O)[C@H]1O | inactive
C[C@@H]1CN([C@@H](C)CO)C(=O)c2cccc(NC(=O)c3ccc(-c4nccs4)cc3)c2O[C@H]1CN(C)S(=O)(=O)c1ccc(Cl)cc1 | inactive
COc1ccc(NC(=O)N(C)C[C@H]2Oc3ccc(NS(C)(=O)=O)cc3C(=O)N([C@H](C)CO)C[C@@H]2C)cc1 | inactive
CC(C)CC#Cc1ccc2c(c1)O[C@H](CN(C)C(=O)NC1CCCC1)[C@H](C)CN([C@@H](C)CO)S2(=O)=O | inactive
COCC(=O)N(C)C[C@@H]1Oc2cc(C#CCC3CCCC3)ccc2S(=O)(=O)N([C@@H](C)CO)C[C@H]1C | inactive
C[C@H](CO)N1C[C@H](C)[C@@H](CN(C)C(=O)Nc2ccc3c(c2)OCO3)Oc2ccc(NC(=O)Cn3cnnn3)cc2CC1=O | inactive
C[C@@H]1CN([C@H](C)CO)S(=O)(=O)c2ccc(C#CC(C)(C)O)cc2O[C@H]1CN(C)C(=O)C1CCCCC1 | inactive
Cc1noc(C)c1S(=O)(=O)Nc1ccc2c(c1)CC(=O)N([C@H](C)CO)C[C@H](C)[C@@H](CN(C)C(=O)Nc1ccc3c(c1)OCO3)O2 | inactive
Cl.NCC(=O)CCC(=O)O | inactive
C[C@@H]1CCCCO[C@@H](CN(C)C(=O)Cc2ccccc2)[C@H](C)CN([C@H](C)CO)C(=O)c2cc(NC(=O)c3ccccc3)ccc2O1 | inactive
Cc1ccc(S(=O)(=O)Nc2ccc3c(c2)C(=O)N([C@H](C)CO)C[C@H](C)[C@@H](CN(C)C(=O)NC(C)C)O3)cc1 | inactive
C[C@@H]1CCCCO[C@H](CN(C)Cc2ccc(C(F)(F)F)cc2)[C@H](C)CN([C@@H](C)CO)C(=O)c2cc(NC(=O)CCCN(C)C)ccc2O1 | inactive
C[C@@H]1CN([C@H](C)CO)C(=O)c2cc(NC(=O)Nc3ccccc3)ccc2O[C@@H](C)CCCCO[C@H]1CN(C)C(=O)c1ccccc1 | inactive
COCC(=O)N1C[C@]2(C1)CN([C@@H](CO)c1[nH]c3cc(ccc3c12)OC)S(=O)(=O)C | inactive
OC[C@H]1O[C@@H](Oc2cccc(O)c2CCCc2ccc(O)cc2)[C@@H](O)[C@@H](O)[C@@H]1O | inactive
O=C(/C=C/c1ccc2c(c1)O[C@@H](C(=O)O)[C@@H](c1ccc(O)c(O)c1)O2)O[C@H](Cc1ccc(O)c(O)c1)C(=O)O | inactive

From the antibiotic and cytotoxicity screens of Wong et al. (2023)
